Results from PMC4336329 (PLoS ONE, 2015).
Among all 310,000 compounds or so, about 2,200 (0.71%) showed an effect of 50% or more. The effect is printed as a negative number. The list shows a part of the results.

These molecules were tested against human ether-à-go-go-related gene (hERG) potassium channel (human, UniProt Q12809) (assay: primary screen, population patch clamp on CHO cells stably expressing hERG).
Chain of human ether-à-go-go-related gene (hERG) potassium channel (Q12809 whole entry, looked up): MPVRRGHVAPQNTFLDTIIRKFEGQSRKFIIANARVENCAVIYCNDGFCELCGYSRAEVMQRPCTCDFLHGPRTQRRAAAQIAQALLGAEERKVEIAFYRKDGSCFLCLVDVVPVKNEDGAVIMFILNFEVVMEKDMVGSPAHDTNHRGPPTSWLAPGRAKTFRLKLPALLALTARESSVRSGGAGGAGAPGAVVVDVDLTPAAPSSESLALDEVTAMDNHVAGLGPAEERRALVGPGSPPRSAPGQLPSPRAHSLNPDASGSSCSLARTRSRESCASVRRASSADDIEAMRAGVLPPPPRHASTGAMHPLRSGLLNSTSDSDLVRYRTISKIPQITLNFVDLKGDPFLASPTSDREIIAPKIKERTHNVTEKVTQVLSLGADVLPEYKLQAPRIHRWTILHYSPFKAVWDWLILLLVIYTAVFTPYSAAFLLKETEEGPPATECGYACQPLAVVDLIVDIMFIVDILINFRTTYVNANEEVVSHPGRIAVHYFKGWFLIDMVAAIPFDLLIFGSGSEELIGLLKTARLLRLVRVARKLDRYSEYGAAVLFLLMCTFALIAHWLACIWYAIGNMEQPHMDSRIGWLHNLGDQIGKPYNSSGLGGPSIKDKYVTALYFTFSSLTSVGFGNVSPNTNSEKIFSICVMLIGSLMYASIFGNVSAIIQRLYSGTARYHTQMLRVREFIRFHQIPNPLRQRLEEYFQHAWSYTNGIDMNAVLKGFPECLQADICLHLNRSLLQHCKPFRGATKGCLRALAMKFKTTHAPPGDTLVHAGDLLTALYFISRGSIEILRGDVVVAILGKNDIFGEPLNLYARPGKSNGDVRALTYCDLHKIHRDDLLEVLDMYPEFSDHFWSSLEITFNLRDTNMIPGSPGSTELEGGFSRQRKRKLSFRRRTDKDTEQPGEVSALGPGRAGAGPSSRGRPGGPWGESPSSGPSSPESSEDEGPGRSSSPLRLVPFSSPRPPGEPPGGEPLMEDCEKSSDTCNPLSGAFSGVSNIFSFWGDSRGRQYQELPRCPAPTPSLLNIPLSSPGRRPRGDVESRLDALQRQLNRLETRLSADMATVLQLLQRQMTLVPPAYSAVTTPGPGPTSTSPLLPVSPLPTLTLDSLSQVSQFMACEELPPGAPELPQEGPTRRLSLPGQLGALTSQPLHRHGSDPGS

| Structure (SMILES) | hERG current change (%, negative = inhibition) at 1uM |
| --- | --- |
| Cc1ccc(S(=O)(=O)N2CCN(Cc3cc(=O)n4ccccc4n3)CC2)c(C)c1 | -33.5% |
| CN(C)CCNC(=O)C(=O)Nc1cc2c3c(c1)CCC(=O)N3CCC2 | 10.5% |
| CCc1ccccc1NC(=O)/C(=C/c1ccco1)c1ccccc1 | 7.04% |
| COc1cc(/C=C(\NC(C)=O)C(=O)Nc2ccc(NC(C)=O)cc2)ccc1OC(C)=O | 6.81% |
| COc1ccc(NC(=O)Nc2ccc3oc(C)nc3c2)cc1 | 7.5% |
| COc1ccc(NC(C)=O)cc1C#N | 13.8% |
| O=C(NCCc1ccccc1F)C1CCCN1S(=O)(=O)c1ccc2ccccc2c1 (stereo not shown) | -4.4% |
| Cc1noc(C)c1C(=O)Nc1nc(-c2ccc([N+](=O)[O-])cc2)cs1 | 8.89% |
| CCN(CCCNC(=O)c1c(C)cc(=O)oc1C)c1ccccc1 | -20.4% |
| COc1ccc(/C=C2\SC(=S)N(CCCC(=O)Nc3cccc(C(=O)O)c3)C2=O)cc1OC | 9.24% |
| Cl.Clc1ccc(CN2C3=NCCCN3c3ccccc32)c(Cl)c1 | -28.2% |
| Cc1cc([N+](=O)[O-])nn1CC(=O)NC(C)c1ccccc1 (stereo not shown) | 7.18% |
| CC(=O)c1ccc2noc(-c3ccccc3)c2c1 | 9.65% |
| O=c1[nH]c(=O)n(Cc2ccco2)c2c1C(C(F)(F)F)(C(F)(F)F)N=C(CCC1CCCCC1)N2 | -2.96% |
| CCC(C)n1nnc2c(=O)oc3ccccc3c21 (stereo not shown) | -5.7% |
| CCCOc1ccc(Cc2c(Cl)nc(SC)nc2OC)cc1 | 14.2% |
| CC(C)Cc1nc(N2CCCCC2)c(C#N)c2c1CCC2 | 3.68% |
| CC(=O)N1CCC(N(CCN2CCOCC2)C(=S)Nc2ccc(C)c(C)c2)CC1 | 5.17% |
| Cc1cccc(Cn2c(=O)n(Cc3ccco3)c(=O)c3ccccc32)c1 | 10.5% |
| N/C(=N\NC(=O)c1sccc1OCc1ccc(Cl)cc1Cl)c1ccccn1 | 11.4% |
| C=CCOc1c(OC)cc(/C=N/Nc2cccc(C(=O)O)c2)c(Br)c1Br | 17.5% |
| COCc1nnc(NC(=O)c2ccc(NC(=O)C(C)C)cc2)s1 | 8.51% |
| Cc1cc(N2CCCC2)nc2ccc(NC(=S)NC(C)C)cc12 | -40.8% |
| COc1ccc(N=C2NC(=O)/C(=C\c3ccco3)S2)cc1 | 15.1% |
| Cc1cc(C)cc(OCC(=O)Nc2nonc2NC(=O)COc2cc(C)cc(C)c2)c1 | 2.96% |
